Assay results as given in the RNAGym collection of RNA variant scans (doi:10.1093/nar/gkz1192).
The source gives no read counts; variants with many changes may rest on few reads.

B1: CPEB3 Ribozyme (parent)
chain: UAACAGGGGGCCACAGCAGAAGCGUUCACGUCGCAGCCCCUGUCAGAUUCUGGUGAAUCUGCGAAUUCUGCUGUAUAUCUC

Variants of: B1
Test: self-cleavage, relative activity (ratio to wild type); higher = more cleavage; in vitro, sequencing
Method in brief: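 Relative activity compares each variant's cleaved/total read fraction with that of the unmutated ribozyme. To get these fractions, barcoded CPEB3 ribozyme libraries from rounds of error-prone PCR were transcribed with T7 RNA polymerase for 5 hours at 37°C and then given 15 min of DNase I treatment before EDTA was added. The RNAs were reverse transcribed with template switching and sequenced on Illumina, and DNA sequencing linked barcodes to variants. A minimum of 5 reads applied, and three batches were averaged.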

| Variant | self-cleavage |
| --- | --- |
| U41C U49C G61A U72A | 0.14 |
| C40U A45G G46C A65G U72C | 0.09 |
| C39U U41A A57G U60C A64U | 0.1 |
| U41A U58A U69A U76A | 0.07 |
| G36U C37U U51A G61A | 0.15 |
| C37U U51G A57U U69A | 0.09 |
| U41A A57U U60G | 0.11 |
| C39A A45G A57G A64G G70A | 0.05 |
| A35U U58C U60C A64C U72C U76C | 0.15 |
| U41A A57G U69C | 0.11 |
| U41C U48A U58C | 0.18 |
| A35U G53A C59A | 0.14 |
| A35U U48C A64G U74A | 0.15 |
| U41A A45U A47U A56G U67A | 0.19 |
| U41C A64G A75U U78A | 1.13 |
| U41A U69C U78C | 0.17 |
| A35U U72C A75G | 0.78 |
| U41C A45G U51C G63A U69A U78C | 0.39 |
| U41C A45U U74C U78C | 1 |
| C38A G42A A75U | 0.16 |
| U41C C68A U69C U78A | 0.08 |

| Variant | self-cleavage |
| --- | --- |
| C40A U41C U49C U60A | 0.18 |
| C39A A65U U67A U80A | 0.03 |
| G36C U41C A47G | 0.28 |
| C39U A45G U48C G53C U72C | 0.16 |
| C40G A56G A65G | 0.21 |
| U41C A45U U60C U78C | 0.4 |
| A35U A64U U74C | 0.21 |
| C38U U41C U49C A57G A64U U76G | 0.4 |
| A35U U60C U66C | 0.13 |
| U41C U49C A56G U78C | 1.21 |
| U41C A45G U58A U72C | 0.19 |
| C39U U51A U67C | 0.22 |
| U41A U67C U69A | 0.27 |
| U41C U48A U54C U66C | 0.12 |
| U41A U67C U76C | 0.08 |
| C39U A45G U72A | 0.67 |
| A35U U43C U49C A64U | 0.08 |
| U41C C44U A56G U60A U74G C79U | 0.27 |
| C40U U60A U78C | 0.13 |
| C38U U67A U69C U80C | 0.19 |
| A35U A45G U48C C62U A77G | 0.08 |

| Variant | self-cleavage |
| --- | --- |
| C40U A57G U80A | 0.6 |
| C39A U41G A56G U60G A75G U78C | 0.04 |
| A35U U43C U48C A64G | 0.23 |
| A35U A45G U60C C62U | 0.12 |
| U41A U51C A57G U69C | 0.21 |
| C40U U43A G63U A65G | 0.34 |
| C39A A45G U72C | 0.14 |
| A35U U49C A65G U80A | 0.06 |
| A35U U49C U80C | 0.45 |
| G36A U49C A57G A65C U72C | 0.1 |
| A35U U51C U60C | 0.13 |
| U41C G61A U80A | 0.92 |
| C38U U41A C62U A64C A65G U66A | 0.11 |
| G36A U69C G73A U76A | 0.05 |
| C38G A45U U54C A56U | 0.15 |
| A35U U48C C62G | 0.11 |
| U41C U43C A47G A65G | 0.14 |
| C40U A47G A65C | 0.08 |
| U41C A57U U74A | 1.18 |
| U41C U49C A57G | 0.45 |
| C38U U67C U72C | 0.1 |

| Variant | self-cleavage |
| --- | --- |
| U41C C62U U72C U80A | 0.21 |
| U41A U51A U54A | 0.46 |
| C39U U41A U43A U54C G70A | 0.06 |
| U41C C68U U74C A75U | 1.28 |
| C37A U41C U54C U78C | 0.16 |
| U41A U43C U80C | 0.43 |
| C38A U49C A65G U67C | 0.11 |
| A35U U54A A56U U78C | 0.17 |
| U41C A45G U67C | 0.28 |
| C38G C44U U74A | 0.24 |
| C40U U41C U49C G52A U54C | 0.69 |
| U41C U51A A64G | 0.9 |
| A35U A56G U80C | 0.65 |
| C37U U67A A75G | 0.42 |
| C37U C50G A65U | 0.11 |
| G36A U60A A65G | 0.07 |
| A35U U51C A57U | 0.12 |
| C37U G55A U67C U69G U74A | 0.1 |
| A35U C62U U66C | 0.26 |
| A35U A47G U69C U72C U74C A75G | 0.14 |
